Measured values from ChEMBL document CHEMBL1201862, “PubChem BioAssay data set” (2004).

System: NCI-H322M
Test: growth of human tumour cells (NCI), 48 h

SMILES	GI50
NC1=NC(NCC2(CO)CCC2)=CC(OCC2(CO)CCC2)N1 (stereo not given)	inactive: > 100 µM
Cc1ccccc1C(=O)Oc1ccc(OCc2ccccc2)cc1	inactive: > 100 µM
CC1=NN(c2ccc(S(=O)(=O)O)cc2)C2(C1)C(Cl)C(=O)N2c1nc2ccccc2s1 (stereo not given)	inactive: > 100 µM
O=C(O)c1ccccc1CN1CCCC(C(=O)O)C1 (stereo not given)	inactive: > 100 µM
Cn1c(=O)c2c(nc(N)n2C2OC(CO)C(O)C2O)n(C)c1=O (stereo not given)	inactive: > 100 µM
Nc1ccc(SC23CC4CC(CC(C4)C2)C3)cc1	inactive: > 100 µM
NC(=O)c1cccc(/N=c2\oc3ccc(Br)cc3cc2-c2nc3ccccc3[nH]2)c1	inactive: 15.4 µM
COC(=O)C(=O)C(C(=O)C(=O)Nc1ccc(F)cc1)c1nc2ccc([N+](=O)[O-])cc2nc1O (stereo not given)	inactive: > 100 µM
CC(C)c1c(O[Si](C(C)C)(C(C)C)C(C)C)c2c3c(ccc4c3c1OC4(C)C)C(C)CC2 (stereo not given)	inactive: > 100 µM
O=C1C(c2c(O)[nH]c3ccc(Br)cc23)=Nc2ccc(Br)cc21	inactive: 22.6 µM
COc1cc(-c2cc(=O)c3c(OC)c(OC)c(OC)c(OC)c3o2)c(OC)c(OC)c1OC	inactive: 36.3 µM
O=C(O)c1ccc([I+]c2ccccc2)cc1	inactive: > 100 µM
CS/C(=N\C(=S)Nc1ccccc1)Nc1ccccc1	inactive: 35.8 µM
Clc1ccc(CNc2nc(Cl)c3nc[nH]c3n2)cc1Cl	inactive: 22.9 µM
COc1ccc(C=C2C(C)=NN(c3cccc(Cl)c3)C23C(Cl)C(=O)N3c2nc3ccccc3s2)cc1 (stereo not given)	inactive: 26.6 µM
COC(=O)C1CCCC2(C1)OCCO2 (stereo not given)	inactive: > 100 µM
COC(=O)C1OC(O[C@H]2CC[C@]3(C)[C@H]4CC=C5[C@@H]6CC(C)(C)CC[C@]6(C(=O)OC)CC[C@@]5(C)[C@]4(C)CC[C@H]3C2(C)C)C(O)C(O)C1O (stereo not given in full)	inactive: 16.4 µM
COc1cc(C2SC(C)C(=O)N2c2ccc(-c3csc(NS(=O)(=O)c4ccc(Cl)c(OC)c4)n3)cc2)ccc1O (stereo not given)	inactive: > 100 µM
Nc1ccc(Cc2c(N)[nH]c(=O)[nH]c2=O)cc1	inactive: > 100 µM
CC(=O)Oc1ccc(OC(Oc2ccccc2)c2ccccc2)cc1 (stereo not given)	inactive: 37.3 µM
CCOC(=O)c1cc2cc(CSc3ccccc3)ccc2oc1=O	inactive: > 100 µM
O=C1Nc2ccccc2/C1=N/Nc1nc(-c2ccccc2)cs1	inactive: 63 µM

SMILES	GI50
COC(=O)/C(=C(/C)c1ccco1)P(=O)(OC)OC	inactive: > 100 µM
CC(O)CCCOC(c1ccccc1)(c1ccccc1)c1ccccc1 (stereo not given)	inactive: 14.5 µM
CC(=O)C1=C(C)N2C(=NC3=C(CCc4ccccc43)C2c2ccc(F)cc2)S1 (stereo not given)	inactive: > 100 µM
CC[C@@]1(N(C)C)C(=O)OCc2c1cc1n(c2=O)Cc2cc3ccccc3nc2-1	inactive: 46.8 µM
Clc1ccc(COC(Cn2ccnc2)c2ccc(Cl)cc2Cl)c(Cl)c1 (stereo not given) [MICONAZOLE NITRATE]	inactive: 10.7 µM
Cc1ccc(C)c(C(=O)CC2OC(O)C(Cl)C2Cl)c1 (stereo not given)	inactive: > 100 µM
CCn1c(CCCc2nc3c(=O)n(C)c(=O)n(C)c3[nH]2)nc2c1c(=O)n(C)c(=O)n2C	inactive: > 100 µM
COc1ccc(NC(=O)/C(=C/c2ccccc2)C(C)=O)cc1	inactive: 11.9 µM
CCOC(=O)/C=C1/C(CCCOCc2ccccc2)C2CCCC23CC2(CCN13)OCCO2 (stereo not given)	inactive: 26.9 µM
CCOC(=O)C(C(=O)c1ccccc1C(=O)OC)=P(c1ccccc1)(c1ccccc1)c1ccccc1	inactive: > 10 µM
CCOC(CN=C=S)OCC	inactive: > 10 µM
CCC(=O)OC1CCn2c1nc1c2C(=O)C(C)=C(N2CC2)C1=O (stereo not given)	active: 0.27 µM
CN(C)c1n/c(=N/c2cccc(Cl)c2)ss1	inactive: 62.4 µM
CCN(CC)C(=S)N/N=C(/c1ccccc1)c1ccccn1	active: 0.216 µM
COc1ccc(N2C(=O)CSC2c2cc3cc(Br)ccc3nc2Cl)cc1 (stereo not given)	inactive: > 50 µM
O=c1[nH][nH]c(=O)n1Cc1cccc(Cn2c(=O)[nH][nH]c2=O)c1	inactive: > 100 µM
COc1nc(OC)nc(Sc2ccc(Sc3ccc(Sc4nc(OC)nc(OC)n4)cc3)cc2)n1	inactive: > 100 µM
COP(=O)(CP(=O)(OC)OCCC(C)CCC=C(C)C)OC (stereo not given)	inactive: > 100 µM
O=[N+]([O-])c1cc(-[n+]2cc([O-])on2)ccc1Cl	inactive: 14.6 µM
O=C(CC(O)(C(F)(F)F)C(F)(F)F)C(c1ccccc1)C(O)(C(F)(F)F)C(F)(F)F (stereo not given)	inactive: 7.03 µM
Nc1ccn(CCNCCn2cnc3nc(N)[nH]c(=O)c32)c(=O)n1	inactive: > 100 µM
O=C(CCCN1CCC2(CC1)CC(=O)N(N1CCCCCC1)C2=O)c1ccccc1	inactive: > 100 µM

SMILES	GI50
CC(C)(C)OC(=O)C(C#N)C(=O)c1ccc(C(=O)O)[nH]1 (stereo not given)	inactive: 43 µM
CCOC(=O)NC(=O)c1cn(CCN2CCN(C(=O)CNC(=O)CNC(=O)Cn3cc(C(=O)NC(=O)OCC)c(=O)[nH]c3=O)CC2)c(=O)[nH]c1=O	inactive: > 100 µM
COc1ccc(OC(C)C(=O)O)c2c1CCCC2=O (stereo not given)	inactive: > 100 µM
COc1ccc2c(=O)oc3c(OC)cc(CCN(C)C)c4c(=O)oc1c2c34 [TASPINE]	inactive: 8.51 µM
C[C@]12CCC3[C@@H](CC[C@@H]4c5nonc5CC[C@]34C)C1C/C(=N/O)C2=O (stereo not given in full)	inactive: 74.3 µM
CCOC(=O)c1c(C)n(Cc2ccccc2)c2c1cc(O)c1[nH]c3c(c12)CCCC3	inactive: 15 µM
O=c1n(CC2CO2)c2ccccc2n1CC1CS1 (stereo not given)	inactive: > 100 µM
CC(=O)c1ccc(NC(=O)C(=O)C(C(=O)c2ccc(Cl)c(Cl)c2)C2OC(=O)c3ccccc32)cc1 (stereo not given)	inactive: 24.9 µM
CN1N=CSC12C(=O)N(c1ccc(Cl)cc1)C(=O)N2c1ccc(Cl)cc1 (stereo not given)	inactive: 4.67 µM
CC12CCC(C(=O)O1)C(C)(C)O2 (stereo not given)	inactive: > 100 µM
CCOC(=O)C(=O)Nc1c(N(CC)CC)n2ccccc2nc1=O	inactive: > 100 µM
Cc1c(Cl)c(S(N)(=O)=O)cc(S(N)(=O)=O)c1NC(=O)c1ccc(Cl)cc1	inactive: > 100 µM
CCSc1nc(-c2ccc(OC)cc2)c(C#N)c(=O)n1C1OCC(OC(C)=O)C(OC(C)=O)C1OC(C)=O (stereo not given)	active: 0.253 µM
C=C1c2nc3ccccc3n2C=C(c2ccc(Cl)cc2)N1c1ccc(OC)cc1	inactive: 20 µM
CC(=O)OCC(OC(C)=O)C(OC(C)=O)C(OC(C)=O)C(C=NN(C(C)=O)S(=O)(=O)c1ccc(/C=C2\NC(=O)NC2=O)cc1)OC(C)=O (stereo not given)	inactive: > 100 µM
Cn1c([N+](=O)[O-])cnc1CN1CCN(CCO)CC1	inactive: > 100 µM
Cc1cc(O)c2c(c1O)C(=O)c1c(O)ccc(O)c1C2=O [Cynodontin]	inactive: > 100 µM
COC(=O)[C@H]1N[C@@H](C(=O)OC)C23CCC[C@H]2CC[C@]1(C(OC)OC)C3	inactive: > 100 µM
COC(=O)[C@H](Cc1ccccc1)NP(=O)(OCCC#N)OCC1OC(n2cc(C)c(=O)[nH]c2=O)CC1N=[N+]=[N-] (stereo not given in full)	inactive: > 100 µM
O=C(Nc1ccccc1)c1cc(S(=O)(=O)n2ccnc2O)c(S)cc1Cl	inactive: > 100 µM
O=C(Cn1c(C(=O)c2ccccc2)nc2ccccc21)c1ccccc1	inactive: > 100 µM

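The compound was tested at five concentrations on cells cultured in 96-well plates, with a 48-hour exposure period. Abbreviation: GI50, concentration required for 50% inhibition of growth.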 Calls of active or inactive are those of the source. Rule as the data show it: active = GI50 up to about 1.1 µM and inactive = higher.
